{
  "source": "the RNAGym collection of RNA variant scans (doi:10.1093/nar/gkz1192)",
  "parents": {"B1": {"name": "CPEB3 Ribozyme (parent)", "chain": "UAACAGGGGGCCACAGCAGAAGCGUUCACGUCGCAGCCCCUGUCAGAUUCUGGUGAAUCUGCGAAUUCUGCUGUAUAUCUC"}},
  "note": "Read counts are not given, so values of variants with three or more changes are uncertain.",
  "data": [
    {"variants_of": "B1", "experiment": "self-cleavage, relative activity (ratio to wild type); higher = more cleavage; in vitro, sequencing", "in_short": "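Libraries of CPEB3 self-cleaving ribozyme mutants came from rounds of error-prone PCR and carried barcodes, which DNA sequencing matched to variants. In vitro transcription used T7 RNA polymerase at 37°C for 5 hours, with a further 15 min in DNase I before EDTA stopped the reaction; the ribozymes cleaved during both steps. The RNA was reverse transcribed with template switching and sequenced on Illumina. Relative activity is the cleaved/total read fraction of a variant divided by that of the unmutated ribozyme, averaged over three batches with at least 5 reads.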", "values": [
      {"variant": "A13G A28U A56G A57G U80C", "self-cleavage": 0.29},
      {"variant": "A13G A28U U41C U66C", "self-cleavage": 0.13},
      {"variant": "A13G C17G A18G", "self-cleavage": 0.4},
      {"variant": "A13G A28G C62U", "self-cleavage": 0.14},
      {"variant": "A13G A28C A47G U48C", "self-cleavage": 0.16},
      {"variant": "A13G C17A A18U A35U C40G U72C", "self-cleavage": 0.06},
      {"variant": "A13G A28U A45U U54A U67G", "self-cleavage": 0.41},
      {"variant": "A13G A47G A56G", "self-cleavage": 0.9},
      {"variant": "A13G A21U U25A A35G U74C", "self-cleavage": 0.06},
      {"variant": "A13G A56U A65G U72G", "self-cleavage": 0.2},
      {"variant": "A13G A28U G33A U74C", "self-cleavage": 0.7},
      {"variant": "A13G A28U G30A U49C A56G A65U", "self-cleavage": 0.13},
      {"variant": "A13G A21U C39A", "self-cleavage": 0.19},
      {"variant": "A13G A35U U80A", "self-cleavage": 0.42},
      {"variant": "A13G C14U U80C", "self-cleavage": 1.08},
      {"variant": "A13G C14U U72C", "self-cleavage": 1.12},
      {"variant": "A13G C17G G52U", "self-cleavage": 0.18},
      {"variant": "A13G A57G A75U", "self-cleavage": 0.95},
      {"variant": "A13G A47G U69C A77G C79U", "self-cleavage": 0.41},
      {"variant": "A13G A28C U43C U51C A64G", "self-cleavage": 0.06},
      {"variant": "A13G A35G U54G", "self-cleavage": 0.8},
      {"variant": "A13G A28G G33U A35G C50U U51C U72C", "self-cleavage": 0.15},
      {"variant": "A13G A21U U78C", "self-cleavage": 0.3},
      {"variant": "A13G A45C A56G C68A U69C", "self-cleavage": 0.06},
      {"variant": "A13G A35G A56G U72C", "self-cleavage": 0.43},
      {"variant": "A13G A56G U80A", "self-cleavage": 0.82},
      {"variant": "A13G A21U U26A U31C G61C", "self-cleavage": 0.14},
      {"variant": "A13G A45G A57U", "self-cleavage": 0.59},
      {"variant": "A13G A28U U31C C40G U41A U54C U69A", "self-cleavage": 0.05},
      {"variant": "A13G A28C U66C", "self-cleavage": 0.09},
      {"variant": "A13G C14U C23A A45G A77G", "self-cleavage": 0.21},
      {"variant": "A13G A35G U67A U69C", "self-cleavage": 0.22},
      {"variant": "A13G A57G G61A G73A", "self-cleavage": 0.19},
      {"variant": "A13G A28C C50A U54C U66C", "self-cleavage": 0.12},
      {"variant": "A13G A28U G33C U43C", "self-cleavage": 0.24},
      {"variant": "A13G C17U A35C C38U U43C", "self-cleavage": 0.36},
      {"variant": "A13G A47G U60A", "self-cleavage": 0.36},
      {"variant": "A13G A28U A56G U74A", "self-cleavage": 0.78},
      {"variant": "A13G A64U U69C U72C U80A", "self-cleavage": 0.18},
      {"variant": "A13G A21U A28U U43C U78C", "self-cleavage": 0.1},
      {"variant": "A13G A35G U43A U49C", "self-cleavage": 0.09},
      {"variant": "A13G A35G U51A", "self-cleavage": 0.72},
      {"variant": "A13G A57G U78A", "self-cleavage": 0.98},
      {"variant": "A13G C14U U41C U67A", "self-cleavage": 0.19},
      {"variant": "A13G A35U G61A", "self-cleavage": 0.15},
      {"variant": "A13G A56G U60A", "self-cleavage": 0.27},
      {"variant": "A13G A56G U60C", "self-cleavage": 0.23},
      {"variant": "A13G A56G U72C", "self-cleavage": 0.91},
      {"variant": "A13G A28U A45U A56G U60C U66C", "self-cleavage": 0.09},
      {"variant": "A13G A35U U41C U69C A77U", "self-cleavage": 0.2},
      {"variant": "A13G A45G U67A", "self-cleavage": 0.19},
      {"variant": "A13G A28G U41A A56G U80C", "self-cleavage": 0.52},
      {"variant": "A13G A28G U41C U58C", "self-cleavage": 0.14},
      {"variant": "A13G A47G U60C G63U U78C U80C", "self-cleavage": 0.07},
      {"variant": "A13G A35U C39A U43C", "self-cleavage": 0.11},
      {"variant": "A13G A35U A47G", "self-cleavage": 0.32},
      {"variant": "A13G A45U A47U U69A", "self-cleavage": 0.15},
      {"variant": "A13G A28G U48G U51A U60C", "self-cleavage": 0},
      {"variant": "A13G A28G G70C", "self-cleavage": 0.07},
      {"variant": "A13G A28G C32U U69G", "self-cleavage": 0.07},
      {"variant": "A13G A21U A56G U58A U60C", "self-cleavage": 0.08},
      {"variant": "A13G A28G A45G A75U", "self-cleavage": 0.29},
      {"variant": "A13G A28G C59U C62U A77C", "self-cleavage": 0.06},
      {"variant": "A13G A56G C59U", "self-cleavage": 0.34},
      {"variant": "A13G A57U A75G", "self-cleavage": 0.78},
      {"variant": "A13G A21U U26C C27U A56G", "self-cleavage": 0.17},
      {"variant": "A13G A28G A64G U74C", "self-cleavage": 0.33},
      {"variant": "A13G A45G U48C U69A U80A", "self-cleavage": 0.43},
      {"variant": "A13G C17G A21G U26C U41C U49A G61A", "self-cleavage": 0.02},
      {"variant": "A13G A45G U48C U69C A75G", "self-cleavage": 0.09},
      {"variant": "A13G A21U U51C A57U U76C", "self-cleavage": 0},
      {"variant": "A13G A35G U48C C62A U67C", "self-cleavage": 0.17},
      {"variant": "A13G A35U U49C", "self-cleavage": 0.14},
      {"variant": "A13G A35G C39G U69C A77G", "self-cleavage": 0.21},
      {"variant": "A13G A28G U43C U48C U80C", "self-cleavage": 0.34},
      {"variant": "A13G A28U C32A", "self-cleavage": 0.24},
      {"variant": "A13G A35G U67C U80A", "self-cleavage": 0.34},
      {"variant": "A13G A28U U31C A47G U48C A57G U69C", "self-cleavage": 0.15},
      {"variant": "A13G A47U U60C", "self-cleavage": 0.18},
      {"variant": "A13G A28G A56G U72C", "self-cleavage": 0.24},
      {"variant": "A13G A28G U31C C37G", "self-cleavage": 0.3},
      {"variant": "A13G A35U U51C U67C", "self-cleavage": 0.13},
      {"variant": "A13G A64U A77U", "self-cleavage": 0.27}
    ]}
  ]
}
